Whole data set: some 33,000 sequences, median “E-score (-0.5 to 0.5)” near -0.032, cut for the highest 2% near 0.36. Some of the results follow.

The record followed here is the supplement of paper PMC3334620.

In the test the target is T1, Sko1 (UniProt Q02100).
T1 sequence: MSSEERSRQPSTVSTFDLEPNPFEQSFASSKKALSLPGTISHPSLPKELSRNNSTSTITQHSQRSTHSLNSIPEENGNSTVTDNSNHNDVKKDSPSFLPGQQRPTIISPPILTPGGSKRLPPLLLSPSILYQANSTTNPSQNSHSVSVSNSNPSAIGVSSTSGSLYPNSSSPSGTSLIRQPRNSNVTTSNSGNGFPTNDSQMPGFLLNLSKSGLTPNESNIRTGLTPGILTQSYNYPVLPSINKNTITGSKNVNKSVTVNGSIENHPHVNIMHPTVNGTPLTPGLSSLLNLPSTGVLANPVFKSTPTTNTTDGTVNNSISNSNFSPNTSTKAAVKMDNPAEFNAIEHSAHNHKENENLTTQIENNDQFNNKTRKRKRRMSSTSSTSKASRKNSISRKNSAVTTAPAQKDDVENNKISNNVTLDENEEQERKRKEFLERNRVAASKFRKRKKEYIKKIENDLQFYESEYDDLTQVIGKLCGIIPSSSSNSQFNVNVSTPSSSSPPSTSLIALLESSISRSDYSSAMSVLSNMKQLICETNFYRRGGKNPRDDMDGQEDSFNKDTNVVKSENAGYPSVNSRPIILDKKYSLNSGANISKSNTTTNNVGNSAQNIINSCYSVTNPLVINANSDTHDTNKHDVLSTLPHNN
As to the kind of experiment: PBM E-score (8-mer binding enrichment) (E-score (-0.5 to 0.5)); higher = stronger / more preferred TF binding; most listed sequences are background and not binding sites. Particulars: protein concentration: 200 nM; construct: GST-full length. The essentials: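 Detection of bound protein used fluorescent anti-GST, with scans normalised by masliner. The proteins were GST-tagged yeast transcription factors applied at about 100-200 nM to universal all-10-mer Agilent arrays made double-stranded by primer extension. Each ungapped eight-base word, pooled with its reverse complement, was scored with an E-score from the Universal PBM Analysis Suite.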
For the sequence ACGACATC, the “PBM E-score” value is 0.346. Next, CACTACCC: -0.0578; ACACCGAG: -0.218; CCTGGAAG: -0.241. Under CAGGATCG stands -0.151; under CCCGGAAA, -0.155; under ACTAGCGC, -0.0522.

For AAAGAGAG, the “PBM E-score” value is -0.175.

With CATAAGGA, the “PBM E-score” value is -0.0132. Regarding AGTCATCC, the “PBM E-score” value was -0.0488. Next, CAGCCCGG: -0.331; GCGCGTAC: 0.139.

As to CTCCGACA, the “PBM E-score” value was -0.116. In the case of ACTCTTGG, the “PBM E-score” value is -0.179. For the sequence CCCATCGG, the “PBM E-score” value is -0.0979. Next, AGGCTCTA: -0.044; ATCGCTCC: -0.256; TCAAGAGA: -0.0398.

As for CCATCCAC, the “PBM E-score” value was -0.333. Next, TCATATCA: 0.209; ATTATCAA: 0.131. Next, CCGCAACG: 0.0186; AACTGATC: -0.013. Under ATAGGGTG stands -0.229. For the sequence GTTGGATA, the “PBM E-score” value was found to be 0.11. Next, ACTATGAC: 0.342; ATTTGTCG: 0.0997; ACGAACTG: 0.0529. Next, AAATTACG: 0.439; AGGGATGC: -0.283.

Take ACGTAAGT: the “PBM E-score” value was found to be 0.465. Next, AAGCCTTG: -0.054; GCCTGGCC: -0.269; ATACGATA: 0.269. Next, CCGGAGCC: -0.349; ACCTTGAA: -0.0691. Next, CCTATCCA: -0.145. As to GACTATGC, the “PBM E-score” value is -0.0722. Under TCACATCA stands 0.274.

CCTCATGA: the “PBM E-score” value is 0.154. Under ACCTAGTC stands -0.18; under AGGGCTAT, -0.13. Next, TACACGAA: 0.251; ATCCGTTG: -0.0186.

In the case of GACCACCC, the “PBM E-score” value was -0.0617.

For the sequence ATGGATGA, the “PBM E-score” value was 0.0327. In the case of CAAGAGGG, the “PBM E-score” value is -0.219. As for CGGGAGAA, the “PBM E-score” value is -0.258. As to AGGAGTTA, the “PBM E-score” value was -0.0892. Under TACGGGAA stands -0.167; under AACGTATG, 0.431; under ACCACCCG, -0.148.

In the case of AGTTTAAT, the “PBM E-score” value worked out at 0.168. Under AATCTAAG stands 0.033; under TCTTGGCA, 0.124; under AAACCGCT, -0.177. Next, CCTGAGCC: -0.285; ACATGGTC: 0.00655; CCAACATC: -0.131. Next, ACACGTCT: 0.292; AAACGAGC: 0.133. CTACACCA: the “PBM E-score” value is -0.00119. Under ATTCACCA stands 0.0304.

As to CTTGTACA, the “PBM E-score” value came out at 0.0263. As for CGTTCTGC, the “PBM E-score” value came to 0.179.

Regarding ACGTGTGG, the “PBM E-score” value came to 0.395. Next, CTCGGCAC: -0.274. Under ACCAAGCC stands -0.132; under AGTTGTGG, 0.0954. Under AAGGCTAC stands -0.0831; under CCCAGAAA, -0.0901.

Consider TAGCCGGA, for which the “PBM E-score” value was -0.118.

For GGGCAAAC, the “PBM E-score” value was -0.0889. Under AACGACAG stands 0.0973; under GACGCCAA, 0.132. Consider GAAGAGTA, for which the “PBM E-score” value was -0.0306. Next, AAATAGAG: 0.101. Next, CCAAGCTA: -0.144. CGGGAACA: the “PBM E-score” value is 0.0556.

In the case of CCGATTTA, the “PBM E-score” value was -0.0925.

Turning to ACCTAAGA, the “PBM E-score” value amounted to 0.0726.

Take AGGAATAA: the “PBM E-score” value was found to be 0.0425. Under ACAAATCT stands 0.116. Next, ATACCATG: 0.127; ACCCTGCC: -0.235.

As to GGCTCGCA, the “PBM E-score” value is -0.107. For GCACAATA, the “PBM E-score” value is -0.0186. Under ATTGGAAG stands 0.0298; under GATGCGAA, 0.0752. Under ATGTATCC stands 0.00689; under TGTCGAAA, 0.0525.

As to CGACTTAA, the “PBM E-score” value stood at 0.0456. Take CGAACTGC: the “PBM E-score” value was -0.0625.

In the case of CTCCTGCC, the “PBM E-score” value was -0.232. Next, GGCAATAA: -0.102. Under AGAAACTG stands 0.0191; under AGTAAGGG, -0.17. Next, ATCTAGTG: -0.0782. In the case of CAGATTGA, the “PBM E-score” value was determined as 0.12. Under CAATAGTG stands -0.0556; under GGTGGAGA, -0.302; under GGAAAGCA, -0.0484. As for CTGGTGAC, the “PBM E-score” value is 0.0832. Under GATCAAGC stands 0.133; under AGGGGTGG, -0.198. Under CAAGACTG stands 0.0134; under GAGCACCA, -0.276. Next, CACACGTG: 0.386; CCGCCAAG: -0.326.

Take CATCCGTA: the “PBM E-score” value is 0.151.
